Assay results taken from PubChem BioAssay (NCATS).
Values joined by “and” are separate entries in the source; they are usually repeats but may differ in a detail not shown here. Equal values may be shown once. This list was built around the results that the source calls inconclusive (neither active nor inactive); the mix of calls is not that of the screen. A potency beside an inconclusive call is a rough fit, not a confirmed value. Active and inactive are the calls of the source. The call rests on the fitted dose curve; in most records, active means well fitted curve in the direction sought with a large enough effect; inconclusive means small, poorly fitted or top-dose-only effect, or another doubt; inactive means no such curve, though single readings can be large; an effect the other way counts as inactive or inconclusive.

What was measured:
[1] = qHTS for Inhibitors of Plasmodium falciparum (DD2) proliferation (AID 504314);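 on activity, negative = inhibition: parasite DNA measured by SYBR Green fluorescence after red cell lysis; plate controls were DMSO vehicle for no effect and artemisinin wells for full effect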; conditions: P. falciparum Dd2 in erythrocytes, SYBR Green growth, 72 h; activity, negative = inhibition: at 6.11 µM (top of the series)
In short: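 Normalization used 0.29 uM artemisinin as full inhibition and DMSO as baseline. Parasitized erythrocytes were exposed to compounds for 72 h (37C, 5% CO2), then lysed with saponin/Triton buffer containing SYBR Green I.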

[2] = qHTS for Inhibitors of Plasmodium falciparum (GB4) proliferation (AID 504315); further: nearly all actives have a fitted effect of over 50% in size;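 on activity change, negative = inhibition: 0% = DMSO vehicle and -100% = 0.29 µM artemisinin control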; conditions: P. falciparum GB4 in erythrocytes, SYBR Green DNA, 72 h; activity change, negative = inhibition: at 6.7 µM (top of the series)
In short: (§1)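 Parasite growth measured as SYBR Green DNA fluorescence (ex 485, em 535 nm) after overnight lysis following 72 h culture at 37 °C, 0.3% parasitemia, 2.5% hematocrit. Values normalized against DMSO and 0.29 uM artemisinin controls, with plate-stack correction.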

[3] = qHTS for Inhibitors of Plasmodium falciparum (HB3) proliferation (AID 504318); further: nearly all actives have a fitted effect of over 60% in size;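 on activity change, negative = inhibition: 0% = DMSO vehicle and -100% = artemisinin control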; conditions: P. falciparum HB3 in erythrocytes, SYBR Green DNA, 72 h; activity change, negative = inhibition: at 7.21 µM (top of the series)
In short: as §1

[4] = qHTS for Inhibitors of Plasmodium falciparum (CP250) proliferation (AID 504320);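 on activity change, negative = inhibition: plate controls were DMSO vehicle for no effect and 0.29 µM artemisinin control for full effect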
In short: as §1

[5] = qHTS for Inhibitors of Plasmodium falciparum (7G8) proliferation (AID 504316); further: nearly all actives have a fitted effect of over 65% in size; conditions: P. falciparum 7G8 in erythrocytes, SYBR Green DNA, 72 h; activity change, negative = inhibition: at 6.7 µM (top of the series)
In short: as §1
Potency means the concentration at half of the fitted maximal effect; tags describe the fitted curve by direction and shape.

| SMILES | Potency [1] | Potency [2] | Potency [3] | Potency [4] | Potency [5] | activity, negative = inhibition [1] |
| --- | --- | --- | --- | --- | --- | --- |
| C=CCN=C1NC(c2cccc(C(F)(F)F)c2)C(C(=O)OC)=C(C)N1Cc1ccccc1 (centres undefined) | inconclusive: 1.19 µM [inhibitor, partial curve] | inconclusive: 1.9 µM [inhibitor, partial curve] | inactive |  |  |  |
| Cc1ccc(C(O)C2=CCCC2=O)cc1 (centres undefined) | inactive | inactive | inactive |  |  |  |
| CC(C)=CCCC(C)=CCON=C1C[C@@H](O)[C@@H](O)[C@@H]2[C@H]3C(=O)N(Cc4ccc5c(c4)OCO5)C(=O)[C@@H]3CC[C@@H]12 | inactive | inactive | inconclusive: 3.01 µM [inhibitor, single point] |  |  |  |
| CCN1C(=O)NC(c2cccc(F)c2)C(C(C)=O)=C1C (centres undefined) | inactive | inactive | inactive |  |  |  |
| CC(CCN1CCCCc2nc(C)c(C)cc21)=NO[C@H](C)CN1CCCc2nc(C)c(C)cc21 | inconclusive: 1.69 µM [inhibitor, single point] | inconclusive: 2.39 µM [inhibitor, partial curve, poor fit] | inconclusive: 4.26 µM [inhibitor, single point] | inconclusive: 1.9 µM [inhibitor, partial curve, poor fit] |  |  |
| COC(=O)C1=C(C)N(Cc2ccccc2)C(=NCc2ccc3c(c2)OCO3)NC1CCc1ccccc1 (centres undefined) | inconclusive: 4.24 µM [inhibitor, single point] | inconclusive: 2.13 µM [inhibitor, single point] | inconclusive: 0.757 µM [inhibitor, single point] |  |  |  |
| COc1ccc(N2C=C3C(=O)C(C)(OC(=O)C4CCCC4)C(=O)C=C3C=C2c2ccsc2)cc1 (centres undefined) | inconclusive: 3.78 µM [inhibitor, partial curve, poor fit] | inconclusive: 1.69 µM [inhibitor, partial curve, poor fit] | inconclusive: 2.24 µM [inhibitor, single point] and inconclusive: 4.26 µM [inhibitor, single point] |  |  |  |
| Cc1cc2c(c(=O)n1Cc1ccccc1)[C@H]1O[C@](CCCCN3C(=O)c4ccccc4C3=O)(Cc3ccccc31)O2 | inconclusive: 2.67 µM [inhibitor, single point] | active: 1.9 µM |  | active: 1.35 µM | active: 1.69 µM |  |
| CC(=O)OC[C@H]1O[C@@H](ON=CC[C@@H]2C=C[C@@H](OC(C)=O)[C@@H](COC(C)=O)O2)[C@@H](OC(C)=O)[C@@H](OC(C)=O)[C@@H]1OC(C)=O | inactive | inconclusive: 0.0012 µM [inhibitor, partial curve, poor fit] | inactive |  |  |  |
| COC(=O)N[C@H](C(C(=O)OC)=C(C)NCc1ccccc1)c1cccc(C)c1 | inconclusive: 0.0753 µM [activator, full curve, poor fit] | inactive | inconclusive: 0.001 µM [inhibitor] |  |  |  |
| COC(=O)c1ccc(CN2C(=O)[C@@]3(CC(C)=CC[C@@H](C)O3)c3ccccc32)cc1 |  | inconclusive: 1.9 µM [inhibitor, single point] | inactive |  |  | inconclusive: -15.3% [inhibitor] |
| C=CC1=C2C=C(C3CC3)N(C3CCCCC3)C=C2C(=O)C(C)(OC(=O)c2ccco2)C1=O (centres undefined) | inconclusive: 4.24 µM [inhibitor, single point] | inconclusive: 4.26 µM [inhibitor, single point] |  | inconclusive: 3.01 µM [inhibitor, partial curve, poor fit] | inconclusive: 1.9 µM [inhibitor, partial curve] |  |
| CC(C)=CCCC(C)=CCN1C(=O)[C@]2(O[C@H](COc3ccccc3)CC3=CCCC32)c2c(Br)cccc21 (some centres undefined) | inconclusive: 2.67 µM [inhibitor, single point] | active: 1.51 µM |  | inconclusive: 4.26 µM [inhibitor, single point] | inconclusive: 3.01 µM [inhibitor, single point] |  |
| COC(=O)CCCC1=CC2=C(c3ccccc3)C(=O)C(C)(OC(=O)C3CCCC3)C(=O)C2=CN1C1CCCCC1 (centres undefined) | inactive and inconclusive: 73.7 nM [activator, full curve, poor fit] | inconclusive: 0.0005 µM [activator] | inactive |  |  |  |
| CCN1C(=NCc2ccc3c(c2)OCO3)NC(c2ccccc2)C(C(=O)OC)=C1C (centres undefined) | inconclusive: 1.5 µM [inhibitor, single point] | inconclusive: 2.13 µM [inhibitor, partial curve] |  | inconclusive: 1.51 µM [inhibitor, partial curve, poor fit] | inconclusive: 0.301 µM [inhibitor, single point] |  |
| COC(=O)CCC(=O)OC1(C)C(=O)C=C2C=C(C3CC3)N(CCc3ccccn3)C=C2C1=O (centres undefined) |  | inconclusive: 4.26 µM [inhibitor, single point] |  | inconclusive: 3.38 µM [inhibitor, single point] | inconclusive: 1.69 µM [inhibitor, single point] | inactive: 4.15% [at 1.12 µM] |
| CC1(C)CC(=O)C2=C(C1)O[C@@]1(CCCCN3C(=O)c4ccccc4C3=O)Cc3c(ccc4ccccc34)[C@H]2O1 | inconclusive: 1.69 µM [inhibitor, single point] | inconclusive: 1.69 µM [inhibitor, single point] | inconclusive: 1.51 µM [inhibitor, partial curve] |  |  |  |
| Cc1ccc(C(=O)OC[C@H]2O[C@H](Cl)C[C@H]2OC(=O)c2ccc(C)cc2)cc1 | active: 1.69 µM | inconclusive: 4.26 µM [inhibitor, single point] |  | inconclusive: 3.38 µM [inhibitor, single point] | inconclusive: 1.69 µM [inhibitor, single point] |  |
| COC(=O)CCCC1=CC2=C(c3ccccc3)C(=O)C(C)(OC(=O)C3CCCC3)C(=O)C2=CN1Cc1ccco1 (centres undefined) | inactive and inconclusive: 2.3 nM [inhibitor, full curve, poor fit] | inconclusive: 0.0076 µM [inhibitor, partial curve, poor fit] | inconclusive: 0.601 µM [inhibitor, full curve] |  |  |  |
| COC(=O)C1=C(C)N(Cc2ccccc2)C(=NCc2ccc(OC)cc2)NC1c1cccc(F)c1 (centres undefined) | inconclusive: 1.5 µM [inhibitor, partial curve] | inconclusive: 2.39 µM [inhibitor, partial curve] |  | inconclusive: 1.35 µM [inhibitor, partial curve] | inconclusive: 0.426 µM [inhibitor, single point] |  |
| C=CC[C@@H]1C=C[C@H](ON=C(C)CCN2CCCc3nc(C)c(C)cc32)[C@H](CO)O1 | inconclusive: 1.34 µM [inhibitor, partial curve] | active: 1.9 µM |  | inconclusive: 3.38 µM [inhibitor, single point] | active: 0.0757 µM |  |
| c1ccc(-c2nc(-c3cccs3)c(NC3CCCCC3)o2)cc1 | inconclusive: 3 µM [inhibitor, single point] | inconclusive: 1.9 µM [inhibitor, partial curve] | inconclusive: 1.9 µM [inhibitor, partial curve] | inconclusive: 1.2 µM [inhibitor, partial curve] |  |  |
| CC(CCN1CCCc2nc(C)c(C)cc21)=NO[C@@H](C)c1cc(-c2c(C)cc(C)cc2C)no1 | inconclusive: 1.5 µM [inhibitor, single point] | inconclusive: 2.39 µM [inhibitor, partial curve] |  | inconclusive: 3.01 µM [inhibitor, single point] | inconclusive: 2.13 µM [inhibitor, single point] and inconclusive: 3.38 µM [inhibitor, single point] |  |
| COc1ccc(C(O)C2=CCCC2=O)cc1 (centres undefined) | inactive | inconclusive: 0.0024 µM [inhibitor, full curve] | inactive |  |  |  |
| CC1(OC(=O)c2ccc(Cl)nc2)C(=O)C=C2C=C(c3ccsc3)OC=C2C1=O (centres undefined) | inconclusive: 0.753 µM [inhibitor, full curve, poor fit] | inactive |  | inactive | inconclusive: 4.26 µM [inhibitor, single point] |  |
| COc1cccc(-c2coc3ccc(Br)cc3c2=O)c1 | inconclusive: 2.38 µM [inhibitor, partial curve, poor fit] |  |  |  | inconclusive: 1.69 µM [inhibitor, single point] |  |
